Molecules are shown by their SMILES. Hit rate of the full screen: of about 48,000 compounds, about 550 (1.1%) were called active. Inconclusive results (about 4%) are left out. No stated cut-off is given here; in the data, active means potency below about 15 µM; inconclusive means mostly about 16 µM to 33 µM; inactive means weaker than that. The list shows a part of the results.

Results on 93 compounds are retold here after PubChem BioAssay AID360 (National Center for Advancing Translational Sciences (NCATS), 2006).
Potency means the concentration at half of the fitted maximal effect.

The assay addresses Lysosomal acid glucosylceramidase (Homo sapiens) (UniProt P04062). Kind of assay: Glucocerebrosidase.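 Further: the screen sought inhibitors.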 Particulars: purified enzyme, resorufin glucoside fluorescence (screen aimed at inhibitors), 20 min. In outline: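 Wild-type enzyme at 0.2 nM final in 50mM citric acid/KH2PO4, 10mM sodium taurocholate, 0.01% tween-20, pH 5.9, with resorufin beta-D-glucopyranoside at 30 uM final. Compounds titrated, 20 min at RT, red fluorescence read; AC50 from titration.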
Chain of UniProt P04062 (P04062 whole entry, looked up): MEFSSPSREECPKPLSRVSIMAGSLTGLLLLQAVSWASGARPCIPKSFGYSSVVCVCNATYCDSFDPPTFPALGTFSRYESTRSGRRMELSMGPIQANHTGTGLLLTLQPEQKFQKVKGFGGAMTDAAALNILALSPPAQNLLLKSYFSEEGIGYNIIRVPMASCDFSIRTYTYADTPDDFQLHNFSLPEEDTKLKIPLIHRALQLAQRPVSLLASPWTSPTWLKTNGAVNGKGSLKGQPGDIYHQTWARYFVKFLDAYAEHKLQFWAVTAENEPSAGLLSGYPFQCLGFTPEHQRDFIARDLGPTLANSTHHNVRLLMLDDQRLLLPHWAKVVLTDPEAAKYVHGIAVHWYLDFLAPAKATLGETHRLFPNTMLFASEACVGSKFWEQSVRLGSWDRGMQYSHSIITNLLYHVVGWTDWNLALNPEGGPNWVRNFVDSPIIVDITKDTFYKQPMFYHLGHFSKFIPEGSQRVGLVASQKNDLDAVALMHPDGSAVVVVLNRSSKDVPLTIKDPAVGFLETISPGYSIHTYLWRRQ
On to `CCS(=O)(=O)N1CCN(Cc2ccccc2OC)CC1`, for which the Potency was inactive: > 76.9 µM.
The result for `CN(C)C(CNC(=O)NC1CCCCC1)c1cccnc1` (stereo not drawn) reads inactive: > 76.9 µM.
As for `COc1cc(NC(=O)Cc2ccc(Cl)cc2)ccc1NC(=O)c1ccco1`, the Potency is inactive: > 76.9 µM.
`O=C(O)c1ccccc1C(=O)Nc1ccccc1`: the Potency is inactive: > 76.9 µM.
In the case of `CCCCN(C)CCCNC(=O)c1ccc2c(c1)NC(=O)C(N1CCOCC1)S2` (stereo not drawn), the Potency is inactive: > 76.9 µM.
On to `CCn1c(=O)c2ccccc2n2c(SCC(=O)N3CCCc4ccccc43)nnc12`, for which the Potency was inactive: > 76.9 µM.
With `O=C(NCC1CCCO1)c1ccc(/C=N/O)nc1` (stereo not drawn), the Potency was inactive: > 76.9 µM.
Turning to `O=C(CCN1CCCCC1)c1ccc2c(c1)OCCO2`, the Potency is inactive: > 76.9 µM.
Regarding `Cc1ccc2c(Cl)cc(Cl)c(OCC(=O)NC(=O)NCc3ccco3)c2n1`, the Potency was inactive: > 76.9 µM.
Take `COCCn1nnnc1C(c1cccs1)N1CCN(c2cc(C)ccc2C)CC1` (stereo not drawn): the Potency was inactive: > 76.9 µM.
On to `CCc1ccc2[nH]cc(C(=O)N3CCCCCC3)c(=O)c2c1`, for which the Potency is inactive: > 76.9 µM.
In the case of `CCC(=O)N1CCc2cc(S(=O)(=O)NCCC(=O)Nc3ccccc3C)ccc21` it was inactive: > 76.9 µM; in that of `CCOC(=O)c1cc(C)n(-n2cnnc2)c1C`, inactive: > 76.9 µM.
In the case of `CCOc1ccccc1-n1c(SCC(N)=O)nnc1-c1cccnc1` it was inactive: > 76.9 µM; in that of `CCOC(=O)c1sc(=NC(=O)c2ccc(S(=O)(=O)N3CCOCC3)cc2)n(C)c1C`, inactive: > 76.9 µM; in that of `O=C(CN(C1CC1)S(=O)(=O)c1ccc(S(=O)(=O)N2CCCCCC2)cc1)Nc1ccccc1`, inactive: > 76.9 µM.
Take `c1cc2c(cc1Cn1cnnn1)OCO2`: the Potency was inactive: > 76.9 µM.
As for `c1ccc(CCNc2nc3ccccc3n3nnnc23)cc1`, the Potency is inactive: > 76.9 µM.
As to `COc1ccccc1NC(=O)N(Cc1ccco1)Cc1cc2ccc(C)c(C)c2[nH]c1=O`, the Potency was inactive: > 76.9 µM.
On to `Cc1cc(C)n(-c2ccc(C(=O)Nc3sccc3C(N)=O)cc2)n1`, for which the Potency was active: 14.9 µM.
Turning to `Cc1cc(C)nc(N2CCC(C(=O)NCC3CCCCC3)CC2)n1`, the Potency was inactive: > 76.9 µM.
`Cc1ccc(C2=Nc3ccccc3NC(C)(c3ccc(C)o3)C2)o1` (stereo not drawn): the Potency is inactive: > 76.9 µM.
For `Nc1ccc2c(c1)ncn2CCCn1cnc2cc(N)ccc21`, the Potency is inactive: > 76.9 µM.
Take `O=C(Nc1ccc(F)c(F)c1)NC1CCCCC1`: the Potency is inactive: > 76.9 µM.
For the compound `O=C(O)C(c1ccccc1)N1CCCC1` (stereo not drawn), the Potency was inactive: > 76.9 µM.
As to `COc1ccc(Cl)cc1NC(=O)CSc1nnc(COc2ccccc2)n1C`, the Potency was inactive: > 76.9 µM.
In the case of `O=C(NCCN1CCOCC1)c1cc2c(=O)n3ccccc3nc2n1Cc1ccccc1` it was inactive: > 76.9 µM; in that of `O=C(NCCCN1CCOCC1)c1cc(-c2ccc(Cl)cc2)on1`, inactive: > 76.9 µM; in that of `O=S1(=O)NC2CCCCCN2c2ccc(F)cc21` (stereo not drawn), inactive: > 76.9 µM.
As to `CC(C)NC(=O)CSc1nc2ccccc2n1-c1ccccc1`, the Potency was inactive: > 76.9 µM.
Take `COC(=O)c1ccc2c(c1)N(Cc1nc(-c3ccc(Cl)cc3)oc1C)C(=O)C1CCCN21` (stereo not drawn): the Potency was inactive: > 76.9 µM.
On to `COc1ccccc1N1CCN(S(=O)(=O)CC23CCC(CC2=O)C3(C)C)CC1` (stereo not drawn), for which the Potency was inactive: > 76.9 µM.
Turning to `O=C(C1COc2ccccc2O1)N1CCN(c2ccccc2)CC1` (stereo not drawn), the Potency was inactive: > 76.9 µM.
For `CC(=O)CC1OC(=O)C(Br)=C1NCc1ccccc1` (stereo not drawn), the Potency was inactive: > 76.9 µM.
In the case of `COc1ccc(-n2c(C)cc(C(=O)COc3ccc(-n4cnnn4)cc3)c2C)cc1` it was inactive: > 76.9 µM; in that of `Cc1ccc2c(c1C)NC(C(=O)O)C1CC=CC21` (stereo not drawn), inactive: > 76.9 µM.
For `CC1CCc2nc(NC(=O)C3CCCO3)sc2C1` (stereo not drawn), the Potency is inactive: > 76.9 µM.
With `O=C(C1CC1)N1CCc2cc(Br)cc(S(=O)(=O)N3CCCCCC3)c21`, the Potency was inactive: > 76.9 µM.
As to `Cc1cc(CNC(=O)Nc2ccc3c(c2)OCO3)nn1C`, the Potency was inactive: > 76.9 µM.
Take `Nc1ccccc1OCCOCCOCCOc1ccccc1N`: the Potency was inactive: > 76.9 µM.
On to `COc1cc(C(=O)OCc2cc3ccccc3[nH]c2=O)cc(OC)c1OC`, for which the Potency is inactive: > 76.9 µM.
Take `O=C(Cn1cccc1)NCc1cccs1`: the Potency was inactive: > 76.9 µM.
For the compound `CCOc1cc(NC(=O)c2ccco2)c(OCC)cc1NC(=O)COc1ccccc1`, the Potency is inactive: > 76.9 µM.
For the compound `CC(C)(C)c1cc(NC(=O)c2cccnc2)no1`, the Potency was inactive: > 76.9 µM.
Regarding `COc1ccc(-c2cc(C(F)(F)F)n3ncc(C(=O)O)c3n2)cc1OC`, the Potency result was “inactive”.
Regarding `Cn1c(CCCNC(=O)c2cccs2)nc2ccccc21`, the Potency was inactive: > 76.9 µM.
For the compound `N#CC1=C(N)C(C#N)(C#N)C(c2cccnc2)C2COCC=C12` (stereo not drawn), the Potency is inactive: > 76.9 µM.
`CC1=Nn2c(nnc2-c2ccccc2Cl)SC1`: the Potency is inactive: > 76.9 µM.
The result for `O=C(CSc1nnc(NC(=O)C2CC2)s1)Nc1ccc(F)cc1` reads inactive: > 76.9 µM; that for `COc1cc(NC(=O)Nc2cccc(C(C)=O)c2)cc(OC)c1OC`, inactive: > 76.9 µM; that for `O=C1CCC(=O)N1CCOP1(=O)COc2ccccc2OC1`, inactive: > 76.9 µM.
With `C/C(N)=C(/C#N)C(=O)COC(=O)c1ccncc1`, the Potency is inactive: > 76.9 µM.
Consider `Cc1nnc(NC(=O)CCCN2C(=O)c3ccccc3C2=O)s1`, for which the Potency was inactive: > 76.9 µM.
Consider `C=CCn1c(SCCC(=O)O)nnc1-c1cccs1`, for which the Potency is inactive: > 76.9 µM.
In the case of `O=CN1CCC(=O)N(Cc2ccccc2)c2ccccc21`, the Potency is inactive: > 76.9 µM.
With `Cc1c(C(=O)N2CCN(C)CC2)oc2ccc(S(=O)(=O)N3CCOCC3)cc12`, the Potency is inactive: > 76.9 µM.
For `CN(C)Cc1c(O)ccc2[nH]cnc12`, the Potency was inactive: > 76.9 µM.
For the compound `COC(=O)c1ccc(OC(=O)c2ccc(OCc3c(C)noc3C)c(OC)c2)cc1`, the Potency is inactive: > 76.9 µM.
On to `CCOC(=O)CC(=O)CSc1ccc2nnc(-c3ccccc3)n2n1`, for which the Potency was inactive: > 76.9 µM.
In the case of `CC(C)CCN1CC(C(=O)NCc2ccccc2)CC1=O` (stereo not drawn) it was inactive: > 76.9 µM; in that of `CCCC(=O)Nc1ccccc1NC(=O)CCC`, inactive: > 76.9 µM.
For the compound `Cc1c(NC(=O)c2ccccc2N)cccc1C(=O)O`, the Potency is inactive: > 76.9 µM.
For `CC(=O)c1ccc(N2CCN(C(=O)c3ccc(NC(=O)C4CCCO4)cc3)CC2)cc1` (stereo not drawn), the Potency was inactive: > 76.9 µM.
In the case of `C=CCOc1ccccc1/C=N/O` it was inactive: > 76.9 µM; in that of `CN(C)CCNC(=O)C(C(=O)c1ccc(F)cc1)n1ccccc1=O` (stereo not drawn), inactive: > 76.9 µM.
On to `Cc1ccc(-c2noc(CSc3nnc(-c4ccccc4)n3C)n2)cc1`, for which the Potency was inactive: > 76.9 µM.
`COc1ccc(CCNC(=O)c2c(O)c3c([nH]c2=O)CCCC3)cc1`: the Potency was inactive: > 76.9 µM.
The result for `CC1CC(c2ccccc2)n2nc(N3C(=O)c4ccccc4C3=O)nc2N1` (stereo not drawn) reads inactive: > 76.9 µM.
With `Cc1csc2nc(CNC(=O)c3cccc(C(F)(F)F)c3)cn12`, the Potency was inactive: > 76.9 µM.
The result for `CCNc1nnc(-c2ccc(C)cc2)o1` reads inactive: > 76.9 µM; that for `Cc1nc2ccc(Nc3nc4cc(S(=O)(=O)N5CCOCC5)ccc4o3)cc2s1`, inactive: > 76.9 µM.
Turning to `O=C(CCc1nc2ccccc2c(=O)[nH]1)N1CCN(C/C=C/c2ccccc2)CC1`, the Potency is inactive: > 76.9 µM.
As for `O=C(O)CCn1c(=O)c2ccccc2c2ccccc2c1=O`, the Potency was inactive: > 76.9 µM.
For the compound `COc1ccccc1N(CC(=O)NCc1ccccc1)S(C)(=O)=O`, the Potency was inactive: > 76.9 µM.
On to `O=C(COC(=O)C1CCN(S(=O)(=O)c2cccs2)CC1)c1cc2ccccc2o1`, for which the Potency is inactive: > 76.9 µM.
Turning to `Cc1ccccc1CN1C(=O)CSc2ccc(C(=O)N3CCOCC3)cc21`, the Potency is inactive: > 76.9 µM.
On to `COc1ccc(S(=O)(=O)NCc2ccco2)c2ccccc12`, for which the Potency was inactive: > 76.9 µM.
The result for `COc1ccc(NC(=O)Cc2nnc(SCC(=O)Nc3cc(C)ccc3OC)n2C)cc1` reads inactive: > 76.9 µM; that for `CCOc1cc2[nH]c(=O)n(CCCCCC(=O)NCc3ccc4c(c3)OCO4)c(=O)c2cc1OCC`, inactive: > 76.9 µM; that for `CSC1=C(C#N)C(c2ccccc2Cl)C2=C(CCCC2=O)N1` (stereo not drawn), inactive: > 76.9 µM.
The result for `CCOCc1cnc(C)nc1NCC(=O)c1c(C)n(C)c2ccc(OC)cc12` reads inactive: > 76.9 µM; that for `O=C(NCC(=O)N(c1cccc(F)c1)C(C(=O)NCC1CCCO1)c1ccccc1)c1ccco1` (stereo not drawn), inactive: > 76.9 µM; that for `CC(C)Cc1cc(C(=O)O)n[nH]1`, inactive: > 76.9 µM.
On to `COC(=O)COc1ccc(S(=O)(=O)NC2CCCCCC2)cc1`, for which the Potency was inactive: > 76.9 µM.
In the case of `CC(C)C[C@H](NC(=O)Nc1cccc(Cl)c1)C(=O)O` it was inactive: > 76.9 µM; in that of `COc1ccc(C2C3=C(CC(C)(C)CC3=O)Oc3ncn4nc(-c5cccnc5)nc4c32)cc1OC` (stereo not drawn), inactive: > 76.9 µM.
The result for `O=C(OCC(=O)c1c[nH]c2ccccc12)c1ccco1` reads inactive: > 76.9 µM; that for `COC(=O)c1cc(OC)c(OC)cc1NC(=O)c1c(C)noc1C`, inactive: > 76.9 µM.
In the case of `COc1ccc(CC(=O)Nc2c3c(nn2-c2cccc(C)c2C)CS(=O)C3)cc1` (stereo not drawn) it was inactive: > 76.9 µM.
For `COc1ccc2[nH]c(=O)c(CN(Cc3ccc4c(c3)OCO4)C(C)=O)cc2c1`, the Potency was inactive: > 76.9 µM.
For the compound `CC(C)(C)c1csc(NC2=NS(=O)(=O)c3ccccc32)n1`, the Potency is inactive: > 76.9 µM.
As to `COc1ccc(OC)c(NC(=O)COC(=O)c2ccc(-n3cnnn3)cc2)c1`, the Potency was inactive: > 76.9 µM.
Turning to `Cc1cccc(NC(=O)c2cccs2)n1`, the Potency was inactive: > 76.9 µM.
